Experimental data reported in the CheMixHub viscosity set.
Where “and” joins values, the source holds several entries; their conditions need not be identical. Equal values may be shown once. This continues a long series; more values of the same kind are listed elsewhere.

Legend:
[1] = 101 kPa
[2] = xn = mol fraction of the nth substance listed

CCCC[n+]1ccn(C)c1.N#C[C-](C#N)C#N
[1]
Conditions | viscosity [mPa·s]
298.15 K | 27.32
308.15 K | 18.45
318.15 K | 13.21

CC(O)CO (configuration not stated) + CS(C)=O
[2], 318.15 K, 100 kPa
Conditions | viscosity [mPa·s]
x1 = 0.3056 | 2.51
x1 = 0.356 | 2.78
x1 = 0.4064 | 3.1
x1 = 0.4566 | 3.44
x1 = 0.5066 | 3.83
x1 = 0.5565 | 4.3
x1 = 0.6063 | 4.86
x1 = 0.6556 | 5.52
x1 = 0.7055 | 6.29
x1 = 0.7549 | 7.22
x1 = 0.8042 | 8.39
x1 = 0.8533 | 9.77
x1 = 0.9024 | 11.5
x1 = 0.9512 | 13.5

CC(O)CO (configuration not stated) + O
[2]
Conditions | viscosity [mPa·s]
303.15 K, 101.3 kPa, x1 = 0.0256 | 1.078
303.15 K, 101.3 kPa, x1 = 0.0559 | 1.507
303.15 K, 101.3 kPa, x1 = 0.0921 | 2.137
303.15 K, 101.3 kPa, x1 = 0.1363 | 3.025
303.15 K, 101.3 kPa, x1 = 0.1914 | 4.28
303.15 K, 101.3 kPa, x1 = 0.262 | 5.795
303.15 K, 101.3 kPa, x1 = 0.3558 | 8.282
303.15 K, 101.3 kPa, x1 = 0.4863 | 12.92
303.15 K, 101.3 kPa, x1 = 0.6806 | 20.32
308.15 K, 101.3 kPa, x1 = 0.0256 | 0.971
308.15 K, 101.3 kPa, x1 = 0.0559 | 1.315
308.15 K, 101.3 kPa, x1 = 0.0921 | 1.823
308.15 K, 101.3 kPa, x1 = 0.1363 | 2.526
308.15 K, 101.3 kPa, x1 = 0.1914 | 3.52
308.15 K, 101.3 kPa, x1 = 0.262 | 4.918
308.15 K, 101.3 kPa, x1 = 0.3558 | 6.955
308.15 K, 101.3 kPa, x1 = 0.4863 | 10.16
308.15 K, 101.3 kPa, x1 = 0.6806 | 15.53
313 K, 101 kPa, x1 = 0.1 | 1.8
313 K, 101 kPa, x1 = 0.3 | 4.3
313 K, 101 kPa, x1 = 0.5 | 8.8
313 K, 101 kPa, x1 = 0.7 | 13.5
313 K, 101 kPa, x1 = 0.9 | 18.1
313.15 K, 101 kPa, x1 = 0.077 | 1.379
313.15 K, 101 kPa, x1 = 0.141 | 2.217
313.15 K, 101 kPa, x1 = 0.2339 | 3.608
313.15 K, 101 kPa, x1 = 0.3197 | 5.038
313.15 K, 101 kPa, x1 = 0.4041 | 6.565
313.15 K, 101 kPa, x1 = 0.4702 | 7.857
313.15 K, 101 kPa, x1 = 0.5285 | 9.022
313.15 K, 101 kPa, x1 = 0.6463 | 11.55
313.15 K, 101 kPa, x1 = 0.6737 | 12.15
313.15 K, 101 kPa, x1 = 0.8015 | 15.03
313.15 K, 101 kPa, x1 = 0.8695 | 16.61
313.15 K, 101 kPa, x1 = 0.9378 | 18.12
313.15 K, 101.3 kPa, x1 = 0.0256 | 0.862
313.15 K, 101.3 kPa, x1 = 0.0559 | 1.16
313.15 K, 101.3 kPa, x1 = 0.0921 | 1.588
313.15 K, 101.3 kPa, x1 = 0.1363 | 2.163
313.15 K, 101.3 kPa, x1 = 0.1914 | 2.965
313.15 K, 101.3 kPa, x1 = 0.262 | 4.074
313.15 K, 101.3 kPa, x1 = 0.3558 | 5.677
313.15 K, 101.3 kPa, x1 = 0.4863 | 8.165
313.15 K, 101.3 kPa, x1 = 0.6806 | 12.35
318.15 K, 101.3 kPa, x1 = 0.0256 | 0.772
318.15 K, 101.3 kPa, x1 = 0.0559 | 1.025
318.15 K, 101.3 kPa, x1 = 0.0921 | 1.377
318.15 K, 101.3 kPa, x1 = 0.1363 | 1.851
318.15 K, 101.3 kPa, x1 = 0.1914 | 2.501
318.15 K, 101.3 kPa, x1 = 0.262 | 3.4
318.15 K, 101.3 kPa, x1 = 0.3558 | 4.68
318.15 K, 101.3 kPa, x1 = 0.4863 | 6.641
318.15 K, 101.3 kPa, x1 = 0.6806 | 9.8
323.15 K, 101 kPa, x1 = 0.0399 | 0.817
323.15 K, 101 kPa, x1 = 0.0501 | 0.889
323.15 K, 101 kPa, x1 = 0.0598 | 0.967
323.15 K, 101 kPa, x1 = 0.07 | 1.045
323.15 K, 101 kPa, x1 = 0.08 | 1.129
323.15 K, 101 kPa, x1 = 0.0899 | 1.211
323.15 K, 101 kPa, x1 = 0.1 | 1.299

NCC(=O)O + O
[2]
Conditions | viscosity
298 K, 101 kPa, x1 = 0.0004 | 0.8837 mPa·s
298 K, 101 kPa, x1 = 0.001 | 0.8937 mPa·s
298 K, 101 kPa, x1 = 0.0018 | 0.8965 mPa·s
298.15 K, 100 kPa, x1 = 0.005954 | 0.9158 mPa·s
298.15 K, 100 kPa, x1 = 0.006751 | 0.9191 mPa·s
298.15 K, 101 kPa, x1 = 9e-05 | 0.8973 mPa·s
298.15 K, 101 kPa, x1 = 0.00018 | 0.9052 mPa·s
298.15 K, 101 kPa, x1 = 0.0009 | 0.8943 mPa·s
298.15 K, 101 kPa, x1 = 0.00135 | 0.897 mPa·s
298.15 K, 101 kPa, x1 = 0.0018 | 0.8997 mPa·s
298.15 K, 101 kPa, x1 = 0.002198 | 0.9055 mPa·s
298.15 K, 101 kPa, x1 = 0.002695 | 0.9054 mPa·s
298.15 K, 101 kPa, x1 = 0.0029 | 0.9155 mPa·s
298.15 K, 101 kPa, x1 = 0.0032 | 0.918 mPa·s
298.15 K, 101 kPa, x1 = 0.00359 | 0.916 mPa·s
298.15 K, 101 kPa, x1 = 0.0036 | 0.9222 mPa·s
298.15 K, 101 kPa, x1 = 0.004484 | 0.922 mPa·s
298.15 K, 101 kPa, x1 = 0.006266 | 0.935 mPa·s
303.15 K, 100 kPa, x1 = 0.003486 | 0.8125 mPa·s
303.15 K, 100 kPa, x1 = 0.004323 | 0.8159 mPa·s
303.15 K, 100 kPa, x1 = 0.005145 | 0.8191 mPa·s
303.15 K, 100 kPa, x1 = 0.005954 | 0.8223 mPa·s
303.15 K, 101 kPa, x1 = 9e-05 | 0.8038 mPa·s
303.15 K, 101 kPa, x1 = 0.00018 | 0.8102 mPa·s
303.15 K, 101 kPa, x1 = 0.00027 | 0.8166 mPa·s
303.15 K, 101 kPa, x1 = 0.00036 | 0.823 mPa·s
303.15 K, 101 kPa, x1 = 0.0004 | 0.801 mPa·s
303.15 K, 101 kPa, x1 = 0.0007 | 0.803 mPa·s
303.15 K, 101 kPa, x1 = 0.0009 | 0.8012 mPa·s
303.15 K, 101 kPa, x1 = 0.001 | 0.805 mPa·s
303.15 K, 101 kPa, x1 = 0.00135 | 0.8037 mPa·s
303.15 K, 101 kPa, x1 = 0.0018 | 0.81 mPa·s
303.15 K, 101 kPa, x1 = 0.002695 | 0.8118 mPa·s
303.15 K, 101 kPa, x1 = 0.0032 | 0.824 mPa·s
303.15 K, 101 kPa, x1 = 0.0036 | 0.8279 mPa·s and 0.814 mPa·s
303.15 K, 101 kPa, x1 = 0.0072 | 0.837 mPa·s
303.15 K, 101 kPa, x1 = 0.011 | 0.854 mPa·s
303.15 K, 101 kPa, x1 = 0.014 | 0.877 mPa·s
308.15 K, 100 kPa, x1 = 0.002636 | 0.7307 mPa·s
308.15 K, 100 kPa, x1 = 0.005954 | 0.7437 mPa·s
308.15 K, 101 kPa, x1 = 9e-05 | 0.7253 mPa·s
308.15 K, 101 kPa, x1 = 0.00036 | 0.7361 mPa·s
308.15 K, 101 kPa, x1 = 0.001 | 0.725 mPa·s and 0.728 mPa·s
308.15 K, 101 kPa, x1 = 0.00135 | 0.7252 mPa·s
308.15 K, 101 kPa, x1 = 0.0018 | 0.7277 mPa·s
308.15 K, 101 kPa, x1 = 0.0036 | 0.7497 mPa·s
308.15 K, 101 kPa, x1 = 0.011 | 0.781 mPa·s
308.15 K, 101 kPa, x1 = 0.014 | 0.8 mPa·s
308.15 K, 101 kPa, x1 = 0.0177 | 0.819 mPa·s
313.15 K, 100 kPa, x1 = 0.002636 | 0.6644 mPa·s
313.15 K, 100 kPa, x1 = 0.003486 | 0.6677 mPa·s
313.15 K, 100 kPa, x1 = 0.004323 | 0.6709 mPa·s
313.15 K, 100 kPa, x1 = 0.005145 | 0.674 mPa·s
313.15 K, 100 kPa, x1 = 0.005954 | 0.6771 mPa·s
313.15 K, 101 kPa, x1 = 9e-05 | 0.6597 mPa·s
313.15 K, 101 kPa, x1 = 0.00018 | 0.6671 mPa·s
313.15 K, 101 kPa, x1 = 0.00027 | 0.6744 mPa·s
313.15 K, 101 kPa, x1 = 0.00036 | 0.6816 mPa·s
313.15 K, 101 kPa, x1 = 0.001 | 0.66 mPa·s and 0.659 mPa·s
313.15 K, 101 kPa, x1 = 0.00135 | 0.6586 mPa·s
313.15 K, 101 kPa, x1 = 0.0018 | 0.662 mPa·s
313.15 K, 101 kPa, x1 = 0.0029 | 0.677 mPa·s
313.15 K, 101 kPa, x1 = 0.0032 | 0.679 mPa·s
313.15 K, 101 kPa, x1 = 0.0036 | 0.6823 mPa·s and 0.67 mPa·s
313.15 K, 101 kPa, x1 = 0.011 | 0.709 mPa·s
313.15 K, 101 kPa, x1 = 0.014 | 0.725 mPa·s
313.15 K, 101 kPa, x1 = 0.0177 | 0.742 mPa·s
318.15 K, 100 kPa, x1 = 0.000893 | 0.6003 mPa·s
318.15 K, 100 kPa, x1 = 0.00177 | 0.6036 mPa·s
318.15 K, 100 kPa, x1 = 0.002636 | 0.6068 mPa·s
318.15 K, 100 kPa, x1 = 0.003486 | 0.6099 mPa·s
318.15 K, 100 kPa, x1 = 0.005145 | 0.6161 mPa·s
318.15 K, 100 kPa, x1 = 0.005954 | 0.6191 mPa·s
318.15 K, 100 kPa, x1 = 0.006751 | 0.6221 mPa·s
318.15 K, 101 kPa, x1 = 0.0007 | 0.6 mPa·s
318.15 K, 101 kPa, x1 = 0.0009 | 0.6007 mPa·s
318.15 K, 101 kPa, x1 = 0.001 | 0.604 mPa·s and 0.605 mPa·s
318.15 K, 101 kPa, x1 = 0.0018 | 0.605 mPa·s and 0.6053 mPa·s
318.15 K, 101 kPa, x1 = 0.002245 | 0.6076 mPa·s
318.15 K, 101 kPa, x1 = 0.002695 | 0.6099 mPa·s
